# Measurements published in PubChem BioAssay AID1347417 (National Center for Advancing Translational Sciences (NCATS), 2020).
# About 5,300 (4.4%) of roughly 120,000 compounds were called active. Inconclusive means that the source gave no clear call. Such entries were picked first, then a sample of the others. The call rests on the fitted dose curve; in most records, active means well fitted inhibition curve with a large enough effect; inconclusive means small, poorly fitted or top-dose-only effect; inactive means no such curve, though single readings can be large or run the other way. A potency beside an inconclusive call is a rough fit, not a confirmed value.
# Test: qHTS Primary assay for Inhibitors of Plasmodium falciparum Dd2 growth in vitro; further: nearly all actives have a fitted effect of over 65% in size
# Conditions: P. falciparum Dd2 growth, SYBR Green, 72 h; series mostly up to 28.9 µM
# Outline: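 Infected erythrocytes (Dd2, 0.3% parasitemia, 2.5% hematocrit final) are added to compound in RPMI-1640/Albumax II medium, grown 72 h at 37C in low oxygen, then lysed with saponin/Triton-X containing SYBR Green and read by fluorescence.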
# Potency means the concentration at half of the fitted maximal effect; tags describe the fitted curve by direction and shape.
row,SMILES,Potency
1,CCOc1cccc(CN(CCO)Cc2nccn2-c2ccc(OC)cc2)c1,"inconclusive: 11.2 µM [inhibitor, single point]"
2,O=C1NC(=NC2CCCC2)C2(CCN(Cc3ccsc3)CC2)N1c1cc(F)cc(F)c1,"inconclusive: 12.6 µM [inhibitor, single point]"
3,CCC(NC(=O)c1ccc2nc(-c3ccc(F)cc3)cn2c1)c1cccnc1 (centres undefined),"inconclusive: 11.2 µM [inhibitor, single point]"
4,CCCn1c(=N)c(C(=O)NC2CCCCC2)cc2c(=O)n3cc(C)ccc3nc21,"inconclusive: 0.251 µM [inhibitor, full curve, poor fit]"
5,O=C(c1ccc(Cl)cc1)N1CCOC(CN(C(=O)c2ccc(F)cc2)C2CCCC2)C1 (centres undefined),inactive
6,O=C(Nc1ccc(C(F)(F)F)cc1)N1CCCC1c1nncn1C1CCCC1 (centres undefined),inactive
7,CC(C)COc1ccc(C(=O)N(Cc2cccc(F)c2)C2CCS(=O)(=O)C2)cc1 (centres undefined),"inconclusive: 17.8 µM [inhibitor, single point]"
8,CCOC(=O)c1cnc2ccc(OCC)cc2c1NCCc1ccc(OC)c(OC)c1,active: 4.47 µM
9,CCn1ncc(N2CCCC(CC(=O)NC3CCN(Cc4ccccc4)CC3)C2)cc1=O (centres undefined),inactive
10,Cc1noc(C)c1S(=O)(=O)N1CCCC(CCc2ccc(F)c(F)c2)C1 (centres undefined),"inconclusive: 17.8 µM [inhibitor, single point]"
11,CS(=O)(=O)N1CCC(C2CCN(Cc3ccc[nH]3)C2)CC1 (centres undefined),"inconclusive: 3.98 µM [inhibitor, single point]"
12,COc1cc(C(=O)NCc2nc(-c3ccc(Cl)cc3)no2)cc(OC)c1OC,inactive
13,Cc1nn(-c2ccc(C(F)(F)F)cc2)c(C)c1[C@@H]1C=C[C@@H](NC(=O)c2cccnc2)C1,"inconclusive: 10 µM [inhibitor, partial curve, poor fit]"
14,O=C(c1ccc(F)cc1)N1CCc2nc(OCC3CC3)ccc2C1,"inconclusive: 6.31 µM [inhibitor, partial curve, poor fit]"
15,Cc1cc(Cn2cc3c4c(cccc42)[C@H](CC(C)C)N[C@H](C(=O)NCc2ccccn2)C3)no1,active: 12.6 µM
16,C[C@@H]1CN(C(=O)CCSCc2ccccc2)CC[C@@]1(O)C1CCOCC1,inactive
17,Cc1ccc(CCNC(=O)Cn2nc(C)n(CCc3ccccc3)c2=O)o1,inactive
18,Cc1cccc(N2CCN(C(=O)C3N(C(C)C)C(=O)C34CCCCC4)CC2)c1 (centres undefined),"inconclusive: 17.8 µM [inhibitor, single point]"
19,O=C(NCCO)c1ccc(-c2nnc(Nc3ccc(OC(F)(F)Cl)cc3)c3ccccc23)cc1,"inconclusive: 10 µM [inhibitor, single point]"
